Over roughly 110,000 compounds, “z-score” has its median near -0.1; the highest 2% begin near 2. The list shows a part of the results. Calls of active or inactive are those of the source.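 Rule for the calls: active = z-score in the third read window above 3 or below -3; inactive = the rest.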

The target in the test is Metabotropic glutamate receptor 8 (Rattus norvegicus) (UniProt P70579). The experiment in a line: rat mGluR8 modulators via GIRK flux, primary screen, cell-based, thallium flux, HTS (AID 488969). Conditions: HEK293 rat mGluR8, GIRK (G protein-gated inwardly rectifying potassium channel) thallium flux, FluoZin2; at 10 µM; stronger effect = higher value; submaximal glutamate (EC20) added with thallium.
UniProt P70579, sequence (P70579 whole entry, looked up): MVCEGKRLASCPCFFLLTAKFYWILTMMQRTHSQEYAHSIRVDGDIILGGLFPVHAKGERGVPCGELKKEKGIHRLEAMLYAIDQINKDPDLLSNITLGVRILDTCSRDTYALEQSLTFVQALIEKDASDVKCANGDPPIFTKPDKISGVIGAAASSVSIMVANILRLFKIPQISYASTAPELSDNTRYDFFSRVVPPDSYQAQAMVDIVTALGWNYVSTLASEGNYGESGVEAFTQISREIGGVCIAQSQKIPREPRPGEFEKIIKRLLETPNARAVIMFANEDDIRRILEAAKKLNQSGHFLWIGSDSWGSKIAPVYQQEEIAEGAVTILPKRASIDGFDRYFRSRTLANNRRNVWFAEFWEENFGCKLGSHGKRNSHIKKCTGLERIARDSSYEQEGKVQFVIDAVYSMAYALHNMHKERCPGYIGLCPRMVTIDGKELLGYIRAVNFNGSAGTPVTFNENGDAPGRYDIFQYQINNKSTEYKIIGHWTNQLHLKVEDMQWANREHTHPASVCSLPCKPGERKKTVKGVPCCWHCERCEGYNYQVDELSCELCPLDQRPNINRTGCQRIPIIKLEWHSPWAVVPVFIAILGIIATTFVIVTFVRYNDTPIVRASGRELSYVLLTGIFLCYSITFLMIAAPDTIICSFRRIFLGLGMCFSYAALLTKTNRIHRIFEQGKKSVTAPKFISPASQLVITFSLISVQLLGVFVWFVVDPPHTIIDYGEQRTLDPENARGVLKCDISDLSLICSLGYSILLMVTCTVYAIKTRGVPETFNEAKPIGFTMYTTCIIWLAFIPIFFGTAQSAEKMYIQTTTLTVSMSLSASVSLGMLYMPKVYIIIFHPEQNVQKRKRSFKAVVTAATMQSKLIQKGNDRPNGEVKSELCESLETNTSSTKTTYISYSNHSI
In turn, `CCCCNC(=O)c1cn(-c2ccc(OCC)cc2)c(=O)c2cc(OC)c(OC)cc12` displayed a z-score of -1.02.
In turn, `COc1ccc(NC(=S)NNC(=O)OC(C)(C)C)cc1OC` returned a z-score of -0.422.
The molecule `Cc1ccc2nc(NC(=O)C3CCN(S(=O)(=O)c4cccc5nsnc45)CC3)sc2c1` showed a z-score of 0.00727.
`O=C(O)CCc1ccc(S(=O)(=O)N2CCOCC2)cc1` displayed a z-score of 0.0366.
Molecule `CCOC(=O)C1CCN(Cc2nc3ccc(Cl)cc3n2CCO)CC1` displayed a z-score of -0.102.
Regarding `CN(C)/C=N/c1ncnc2c1cnn2-c1ccc(C(F)(F)F)cn1`, the z-score was found to be 0.77.
On to `CC(Oc1ccc(-c2nccc(-c3ccccn3)n2)cc1)C(=O)NN` (configuration not stated), for which the z-score was -0.32.
The same measure for `O=C(O)c1ccccc1C(=O)N1CCN(c2cccc(Cl)c2)CC1`: 0.309.
In turn, `Cc1cccc(C)c1OCC(O)Cn1ccnc1C` (configuration not stated) had a z-score of -0.38.
As to `Cc1ccc(-n2c(Cn3cnc4ccccc43)nnc2SCC(=O)O)cc1`, the z-score is -0.0769.
`COc1ccc(S(=O)(=O)NCCCN2CCOCC2)c2ccccc12` registered a z-score of 0.707.
In turn, `CC1(C)CC(=O)c2c(O)cc(OCc3ccc(Br)cc3)cc2O1` gave a z-score of 0.0488.
Molecule `Cc1ccc2nc(NC(=O)C3CCN(S(=O)(=O)c4ccc5c(c4)oc(=O)n5C)CC3)sc2c1` gave a z-score of 0.227.
As to `Cc1ccc(-c2noc(CN3CCCCC3)n2)cc1`, the z-score was -0.376.
The same measure for `Cc1ccc(NC(=O)/C(C#N)=C/c2cccs2)c(C)c1`: 0.0553.
Molecule `CC(=O)Nc1ccccc1OC(=O)N1CCOCC1` returned a z-score of -0.392.
In the case of `Cc1nn2c(CN(C(=O)c3ccco3)c3ccccc3)nnc2c2ccccc12`, the z-score turned out to be 0.0668.
`Cc1ccc(NC(=S)NCCc2c[nH]c3ccccc23)cc1` had a z-score of -0.0822.
Molecule `O=C(COC(=O)CCSc1ccc(Cl)cc1)NCc1ccc(Cl)cc1` displayed a z-score of 0.261.
Molecule `Cn1c(COc2ccccc2)nnc1SCc1cc(=O)[nH]c2ccccc12` registered a z-score of 0.653.
The value for `COc1cccc(N2CCN(CC(=O)NCc3cccs3)CC2)c1` was -0.23; that for `O=C(Nc1ccccc1-c1nnc(SCc2ccccc2)o1)c1ccccc1` was -0.364; that for `Cc1ccc(-c2cc(C(=O)N3CCCc4ccccc43)c3ccccc3n2)cc1` was -0.22.
The same measure for `CNC(=O)C1CC(=O)N(c2ccc(C)cc2)C1` (configuration not stated): 0.338; for `CCCCOc1ccc(C(=O)NNC(=S)NC(=O)CC)cc1`: active: 4.28; for `COc1cccc(Nc2ccc(Nc3cccc(OC)c3)nn2)c1`: 0.309.
For the molecule `Cc1cc2ncn(N)c2cc1C`, the z-score is -0.221.
`FC(F)(F)c1nnc(-c2ccccc2)nc1Sc1ccccc1` returned a z-score of 0.0829.
`CCCc1nc2ccc(NC(=O)c3ccco3)cc2c(=O)n1Cc1ccccc1Cl` yielded a z-score of 0.0821.
Consider `Cn1c(=NC(=O)CSCC(=O)N2CCCC2)sc2ccccc21`, for which the z-score was determined as 1.64.
Consider `Cc1ccc(/C=N/NC(=O)c2csc(C)c2)o1`, for which the z-score was -0.19.
The value for `C/C(=N/Nc1ccc(F)cc1)c1ccc(Cl)s1` was 0.13; that for `COC(=O)c1sccc1-c1ccc(C(=O)Nc2cccc(Cl)c2)o1` was -0.119.
The same measure for `COC(=O)c1c(NC(=O)c2cccnc2)sc(C)c1C`: 0.175; for `Cc1cc(=O)oc2cc(OCC(=O)NCc3ccco3)ccc12`: 0.949.
For `CCOC(=O)C1CCN(C(=O)c2ccc(SC)cc2OC)CC1`, the z-score is -0.371.
The molecule `Cc1cccn2c(=O)c3cc(C(=O)NCc4cccnc4)c(=N)n(C(C)C)c3nc12` had a z-score of -0.268.
The molecule `Cc1ccc(C)c(C(=O)CSc2n[nH]c(-c3ccncc3)n2)c1` had a z-score of 0.166.
The value for `Cc1ccc(-n2c(CSc3nc(C)cc(C)n3)nnc2SCC(=O)NCc2ccco2)cc1` was active: 8.78.
Turning to `CCn1cc([N+](=O)[O-])c(C(=O)Nc2ccc(Br)cn2)n1`, the z-score was -0.795.
For the molecule `COc1ccc(-n2c(=O)c3ccccc3n(CC(=O)Nc3cc(C)on3)c2=O)cc1OC`, the z-score is -0.958.
`CC(=O)N1CCc2cc(S(=O)(=O)Nc3cccc(C(F)(F)F)c3)ccc21`: the z-score was -0.237.
The value for `CC(C)n1c(NCc2nc3ccccc3n2C)nc2ccccc21` was -1.2.
The molecule `COc1ccc(NC(=O)CCN2CCC(C)CC2)cc1` yielded a z-score of 0.105.
In turn, `Cc1cc(C)n(-c2nc(N(C)C)nc(N3CCOCC3)n2)n1` yielded a z-score of -0.234.
As to `N#Cc1c(-c2cccs2)cc(-c2cccnc2)nc1N`, the z-score turned out to be 0.891.
For `COC(=O)C(Cc1c[nH]c2ccccc12)NC(=O)C(C)C` (configuration not stated), the z-score was -0.146.
Take `CCN(CC)c1ccc(NC(=O)OC)cc1`: the z-score was -0.117.
`O=C(CSc1nnc(Cn2c(=O)sc3ccccc32)n1-c1ccccc1)N1CCOCC1` showed a z-score of 0.0802.
The value for `COc1nc(Nc2ccc3c(c2)OCO3)nc(OC)n1` was -0.21; that for `O=C1C2C(c3ccccc3)C=CC(c3ccccc3)C2C(=O)N1C1CCCCC1` (configuration not stated) was -0.89; that for `Cc1ccc(S(=O)(=O)c2cnc(-c3ccccc3)nc2Oc2ccccc2)cc1` was -0.308.
The same measure for `O=C(Nc1ccccc1)Nc1cccc(Cl)c1`: 0.0364; for `COC(=O)c1cn(NC(=O)c2ccc(F)cc2)c(=O)c2ccccc12`: -0.423; for `Cc1ccc(-c2nsc(SCC(=O)NCc3ccc4c(c3)OCO4)n2)cc1`: -0.00793.
In the case of `Cc1ccc(CN2C(=O)NC(Cc3c[nH]c4ccccc34)C2=O)cc1` (configuration not stated), the z-score is -0.269.
The same measure for `COCC(=O)Nc1cc(OC)ccc1OC`: 0.423.
`O=[N+]([O-])c1ccc(O)c(C=Nc2ccc3nc(-c4ccccc4)[nH]c3c2)c1` registered a z-score of -0.271.
Regarding `CC(=O)Nc1ccc(S(=O)(=O)N(CCO)Cc2ccccc2)cc1`, the z-score worked out at 0.159.
In turn, `COc1ccc(N=Cc2sc3ccccc3c2Cl)cc1` displayed a z-score of 0.0672.
`CCS(=O)(=O)N1CCC(C(=O)NCCCN2CCCC2)CC1` gave a z-score of -0.118.
Turning to `COc1ccc(C)cc1S(=O)(=O)N(C)CC(=O)N1CCCCCC1`, the z-score was -0.534.
`O=C(CSc1nc(-c2ccccc2)c(-c2ccccc2)[nH]1)N1CCN(S(=O)(=O)c2ccccc2)CC1`: the z-score is -0.463.
`O=[N+]([O-])c1cccc(/C=C/c2nc(C=Nc3ccc4ccccc4c3)c(O)o2)c1` showed a z-score of -0.0456.
Consider `Cc1ccc(SCc2cc(=O)[nH]c(Nc3nc(C)c4ccccc4n3)n2)cc1`, for which the z-score was 0.834.
The same measure for `CCCCOc1ccc(C(=O)NC)cc1`: 0.31; for `COc1ccc(/C=N/n2cnc3c([nH]c4ccc(Br)cc43)c2=O)cc1CN1CCOCC1`: -0.0868; for `O=C(OCC(=O)N1CCN(C(=O)c2ccco2)CC1)c1sc2cc(F)ccc2c1Cl`: -0.404.
`COc1ccc(/C=N/NC(=O)CN2CCS(=O)(=O)CC2)cc1` yielded a z-score of -0.11.
In turn, `CCOC(=O)C1=C(C)NC(SCC(=O)Nc2cc(C)on2)=C(C#N)C1c1cccs1` (configuration not stated) showed a z-score of -1.81.
On to `C/C(=N/NC(=O)c1cc(Cl)ccc1O)C12CC3CC(CC(C3)C1)C2`, for which the z-score is active: 3.19.
Consider `COC(=O)c1ccc(CSc2nc(C)nc3c2c(=O)n(C)c(=O)n3C)o1`, for which the z-score was -0.371.

These data come from PubChem BioAssay AID488969 (Vanderbilt High Throughput Screening Facility, 2010).
